Reference: PubChem BioAssay AID360 (National Center for Advancing Translational Sciences (NCATS), 2006)
Hit rate of the full screen: of about 48,000 compounds, about 550 (1.1%) were called active. Inconclusive results, whose numbers are uncertain, are shown with a selection of clear calls. Rule as the data show it: active = potency below about 15 µM; inconclusive = mostly about 16 µM to 33 µM; inactive = weaker than that. Potencies of inconclusive entries are doubtful fits and often do not repeat.

target: Lysosomal acid glucosylceramidase (Homo sapiens) (UniProt P04062); test: Glucocerebrosidase; conditions: purified enzyme, resorufin glucoside fluorescence (screen aimed at inhibitors), 20 min;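 also: the screen sought inhibitors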
UniProt P04062, sequence (P04062 whole entry, looked up): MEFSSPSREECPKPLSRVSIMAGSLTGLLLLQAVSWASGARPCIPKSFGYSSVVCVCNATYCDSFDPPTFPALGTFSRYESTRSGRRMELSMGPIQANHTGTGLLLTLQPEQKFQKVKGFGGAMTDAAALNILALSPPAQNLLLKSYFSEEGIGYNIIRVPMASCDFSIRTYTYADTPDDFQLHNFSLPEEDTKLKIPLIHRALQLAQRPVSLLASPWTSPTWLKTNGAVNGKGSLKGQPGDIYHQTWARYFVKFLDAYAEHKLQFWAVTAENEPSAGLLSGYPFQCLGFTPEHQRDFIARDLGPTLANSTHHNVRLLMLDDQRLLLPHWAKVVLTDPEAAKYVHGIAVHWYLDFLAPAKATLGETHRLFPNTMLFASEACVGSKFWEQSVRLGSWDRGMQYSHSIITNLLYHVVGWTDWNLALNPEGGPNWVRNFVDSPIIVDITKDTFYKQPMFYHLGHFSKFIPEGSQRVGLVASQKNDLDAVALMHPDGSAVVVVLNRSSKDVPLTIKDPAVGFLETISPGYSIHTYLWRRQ
Method in brief: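 Compounds titrated against 0.2 nM normal enzyme, 30 uM resorufin beta-D-glucopyranoside substrate, citrate/phosphate buffer with taurocholate and tween-20, pH 5.9. Reaction ran 20 min at room temperature; fluorescence (Ex 548/Em 600) gave AC50.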
Potency is read from the fitted curve at half-maximal effect.

Potency, inconclusive:
O=C(Nc1ccc(F)cc1)c1oc2ccccc2c1NC(=O)C1CCCC1 22.3 µM [decreasing], Cc1sc2nc(CN(Cc3cccs3)C(=O)NC3CCCCC3)[nH]c(=O)c2c1C 22.3 µM [decreasing], O=C(NCCCN1CCOCC1)c1c(O)c2ccccc2[nH]c1=O 20.6 µM [decreasing], CCOC(=O)C1CCCN(c2ncnc3c2oc2ccccc23)C1 (centres undefined) 29.3 µM [increasing], Cc1cccc(-c2c3c(=O)n(C)c(=O)n(C)c3cn2-c2ccc(O)cc2)c1 20.2 µM [decreasing], CC(=O)Cc1nsc(NC(=O)c2ccc(-c3cccc(C(F)(F)F)c3)o2)n1 18.3 µM [decreasing], COc1ccc(N(CC(=O)Nc2ccc(F)c(Cl)c2)S(=O)(=O)c2c(C)noc2C)cc1 17.7 µM [decreasing], O=C(Nc1ccc(O)cc1C(=O)O)c1ccc2c(c1)C(=O)N(Cc1ccco1)C2=O 21.1 µM [increasing], Nc1nc(Nc2ccccc2)nc2ccccc12 32.7 µM [decreasing], COc1ccc(-c2csc(N(CCCN(C)C)C(=O)c3cccs3)n2)cc1 19 µM [decreasing], Nc1ncnc2nc(SCC(=O)N3CCN(c4ccccc4)CC3)[nH]c12 20.2 µM [decreasing], CCCOc1ccc(S(=O)(=O)NCCCN2CCOCC2)c2ccccc12 21.9 µM [decreasing], COC(=O)Sc1nnc(-c2ccc(Br)cc2)o1 21.9 µM [decreasing], CN1CCN(c2ccc(Cl)cc2NC(=O)c2ccc(S(=O)(=O)N3CCCCCC3)cc2)CC1 22.2 µM [decreasing], CC1=CC(=C(C#N)c2nc3ccccc3s2)C=C(C)N1Cc1ccco1 22.9 µM [increasing], CCCCOc1cccc(C(=O)N(Cc2ccco2)C2CCS(=O)(=O)C2)c1 (centres undefined) 19.2 µM [decreasing], COc1cc2c(cc1NC(=O)CC1SC(N3CCCC3)=NC1=O)oc1ccccc12 (centres undefined) 18.5 µM [increasing], Cc1noc(C)c1CSc1nc2ccccc2n1CCc1ccccc1 27 µM [decreasing], c1ccc(-c2oc3ncnc(NCCCn4ccnc4)c3c2-c2ccccc2)cc1 20 µM [decreasing], CCOc1cc(C(=O)Nc2cc(C)ccn2)cc(OCC)c1OCC 24.1 µM [decreasing], O=C(Nc1nccs1)c1cc(N2CCOCC2)nc2ccccc12 21.4 µM [decreasing], CCN(CC)S(=O)(=O)c1ccc2c(c1)nc(SCC(=O)NC1CC1)n2-c1ccccc1OC 32.4 µM [decreasing], CCOC(=O)c1sc(NC(=O)c2ccc(Br)o2)cc1C 21.2 µM [decreasing], O=C(Cc1ccccc1)N(c1ccc(F)cc1)C1C=CS(=O)(=O)C1 (centres undefined) 26.8 µM [decreasing], O=C(CCNS(=O)(=O)c1cccc2nsnc12)NCCC1=CCCCC1 27.2 µM [decreasing], O=C(CCN1CCN(Cc2ccccc2)CC1)Nc1cccc(Cl)c1 18.4 µM [decreasing], O=C(C1CCC(=O)N1Cc1ccccc1Cl)N1CCN(c2cccc(Cl)c2)CC1 (centres undefined) 29.5 µM [decreasing], O=C(Nc1cnn(Cc2ccc(Cl)c(Cl)c2)c1)c1nc2ncccn2n1 17.4 µM [decreasing], CCn1c(SCC(=O)N(Cc2ccccc2)C2CCS(=O)(=O)C2)nc2ccccc2c1=O (centres undefined) 28 µM [decreasing], Cc1ccc(S(=O)(=O)NC(=O)c2cc(C)n(CCCn3ccnc3)c2C)cc1 19.3 µM [decreasing]

Potency, inactive:
Cc1ccc2cc3cc(C(=O)NCCCN4CCCCCC4)oc3nc2c1 > 76.9 µM, CCOC(=O)CCC(NC(=O)c1cncc(O)c1)C(=O)OCC (centres undefined) > 76.9 µM, COCCn1c(SCC(=O)Nc2cccc(OC)c2)nnc1-c1ccc(Cl)cc1 > 76.9 µM, CCc1c(C(=O)Nc2ccncc2)csc1C, NC(=O)c1oc2ccccc2c1NC(=O)c1nc2ccccc2s1 > 76.9 µM, Cc1ccnc(NC(=O)c2c(O)c3ccccc3n(C)c2=O)c1 > 76.9 µM, CC(=O)NC(=O)NC1CSCC1OC(C)=O (centres undefined) > 76.9 µM, COc1ccc(OC)c(NC(=O)COc2ccc(S(=O)(=O)NC(C)C)cc2)c1 > 76.9 µM, c1ccc(-c2nc3ccccc3s2)nc1 > 76.9 µM, O=C(CSc1nc2ccccc2[nH]1)c1ccc2c(c1)OCO2 > 76.9 µM, CCCOc1ccccc1Cn1c(=O)oc2ccc(C)cc21 > 76.9 µM, Cc1ccc(NC(=O)N(Cc2ccc3c(c2)OCO3)Cc2cc3cc4c(cc3[nH]c2=O)OCCO4)cc1 > 76.9 µM, COC(=O)C1=C(C)NC(C)=C(C(=O)OC)C1c1cc2ccc(C)cc2[nH]c1=O > 76.9 µM, CCOC(=O)c1cnn(-c2nc(-c3ccccc3)nc3c2COC(C)(C)C3)c1N > 76.9 µM, N#CC(C(=O)NC1CCCCC1)c1nc2ccccc2nc1N1CCN(c2ccc(F)cc2)CC1 (centres undefined) > 76.9 µM

Potency, active:
O=C1C2C3C=CC(C3)C2C(=O)N1CNc1ccc(O)cc1 (centres undefined) 11.6 µM, CCCCCCN1CC(O)=C(c2nc3ccccc3[nH]2)C1=N 11 µM, O=C(Nc1ccc(Br)c2cccnc12)c1ccc(Cn2cc(Cl)cn2)o1 9.25 µM, COCCN1Cc2cccc(C(=O)Nc3ccc(S(=O)(=O)N4CCCCC4)cc3)c2C1=O 15.2 µM
